Data from paper PMC9911399, “Two distinct binding modes provide the RNA-binding protein RbFox with extraordinary sequence specificity”.
Where a chain is given by its changes, count along the chain named. This is one part of the list.

B1: AUUUACU (DNA:RNA)
RNA: GGGAGACCGGAAUUCAGAUUGUCCAUUUACUUUAAAUCCCGUCGUAGCCACCA
DNA 1: CAATCTGAATTCCGGTCTCCC
DNA 2: TGGTGGCTACGACGGGATT
B2: CCAUCCU (DNA:RNA)
RNA: B1 RNA with A25C, U26C, U27A, A29C
DNA 1: CAATCTGAATTCCGGTCTCCC
DNA 2: TGGTGGCTACGACGGGATT
B3: AACUCAA (DNA:RNA)
RNA: B1 RNA with U26A, U27C, A29C, C30A, U31A
DNA 1: CAATCTGAATTCCGGTCTCCC
DNA 2: TGGTGGCTACGACGGGATT
B4: AAUGGGU (DNA:RNA)
RNA: B1 RNA with U26A, U28G, A29G, C30G
DNA 1: CAATCTGAATTCCGGTCTCCC
DNA 2: TGGTGGCTACGACGGGATT
B5: GUUACUU (DNA:RNA)
RNA: B1 RNA with A25G, U28A, A29C, C30U
DNA 1: CAATCTGAATTCCGGTCTCCC
DNA 2: TGGTGGCTACGACGGGATT
B6: AAAUUAG (DNA:RNA)
RNA: B1 RNA with U26A, U27A, A29U, C30A, U31G
DNA 1: CAATCTGAATTCCGGTCTCCC
DNA 2: TGGTGGCTACGACGGGATT
B7: AAACGAC (DNA:RNA)
RNA: B1 RNA with U26A, U27A, U28C, A29G, C30A, U31C
DNA 1: CAATCTGAATTCCGGTCTCCC
DNA 2: TGGTGGCTACGACGGGATT
B8: CAUUCUU (DNA:RNA)
RNA: B1 RNA with A25C, U26A, A29C, C30U
DNA 1: CAATCTGAATTCCGGTCTCCC
DNA 2: TGGTGGCTACGACGGGATT
B9: AGCAUGA (DNA:RNA)
RNA: B1 RNA with U26G, U27C, U28A, A29U, C30G, U31A
DNA 1: CAATCTGAATTCCGGTCTCCC
DNA 2: TGGTGGCTACGACGGGATT
B10: UUUAUUA (DNA:RNA)
RNA: B1 RNA with A25U, U28A, A29U, C30U, U31A
DNA 1: CAATCTGAATTCCGGTCTCCC
DNA 2: TGGTGGCTACGACGGGATT
B11: CGGCAGC (DNA:RNA)
RNA: B1 RNA with A25C, U26G, U27G, U28C, C30G, U31C
DNA 1: CAATCTGAATTCCGGTCTCCC
DNA 2: TGGTGGCTACGACGGGATT
B12: GUCAAAU (DNA:RNA)
RNA: B1 RNA with A25G, U27C, U28A, C30A
DNA 1: CAATCTGAATTCCGGTCTCCC
DNA 2: TGGTGGCTACGACGGGATT
B13: CAUCAGC (DNA:RNA)
RNA: B1 RNA with A25C, U26A, U28C, C30G, U31C
DNA 1: CAATCTGAATTCCGGTCTCCC
DNA 2: TGGTGGCTACGACGGGATT
B14: UAUACAU (DNA:RNA)
RNA: B1 RNA with A25U, U26A, U28A, A29C, C30A
DNA 1: CAATCTGAATTCCGGTCTCCC
DNA 2: TGGTGGCTACGACGGGATT
B15: CAAUCAC (DNA:RNA)
RNA: B1 RNA with A25C, U26A, U27A, A29C, C30A, U31C
DNA 1: CAATCTGAATTCCGGTCTCCC
DNA 2: TGGTGGCTACGACGGGATT
B16: UCAAACA (DNA:RNA)
RNA: B1 RNA with A25U, U26C, U27A, U28A, U31A
DNA 1: CAATCTGAATTCCGGTCTCCC
DNA 2: TGGTGGCTACGACGGGATT
B17: CUUGAGC (DNA:RNA)
RNA: B1 RNA with A25C, U28G, C30G, U31C
DNA 1: CAATCTGAATTCCGGTCTCCC
DNA 2: TGGTGGCTACGACGGGATT
B18: UCGUUCU (DNA:RNA)
RNA: B1 RNA with A25U, U26C, U27G, A29U
DNA 1: CAATCTGAATTCCGGTCTCCC
DNA 2: TGGTGGCTACGACGGGATT
B19: UAUCUAG (DNA:RNA)
RNA: B1 RNA with A25U, U26A, U28C, A29U, C30A, U31G
DNA 1: CAATCTGAATTCCGGTCTCCC
DNA 2: TGGTGGCTACGACGGGATT
B20: UGCCUUG (DNA:RNA)
RNA: GGGAGACCGGAAUUCAGAUUGUCCUGCCUUGUUAAAUCCCGUCGUAGCCACCA
DNA 1: CAATCTGAATTCCGGTCTCCC
DNA 2: TGGTGGCTACGACGGGATT

Target: T1, RBFOX1 RRM RbFoxmut (Fox-RRM*) (Homo sapiens, UniProt Q9NWB1 109-208, R118D;E147R;N151S;E152T)
T1 sequence: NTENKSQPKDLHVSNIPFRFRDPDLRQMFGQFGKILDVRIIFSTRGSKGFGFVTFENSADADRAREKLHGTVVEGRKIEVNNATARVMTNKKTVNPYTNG
Assay: EMSA; HiTS-Eq, 1 nM pool, 10 min; buffer printed only for the single-RNA assays: 10 mM Tris pH 7.5, 150 mM NaCl, 3.4 mM EDTA, 0.001% NP-40, 30 C
Conditions: tags: His6 N-terminal (pET28a); label: 5' 32P
In short: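 Purified wild-type or mutant RbFox RRM at increasing concentrations was equilibrated with 1 nM of 5′-radiolabelled RNA carrying 7 randomized nucleotides for 10 min in 50 µL. Unbound RNA was separated by 8% native PAGE and sequenced. Relative association constants came from read-count changes of each RNA species compared with the control reaction, normalised to the cognate motif.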

Binder	binding signal
B1	0.15 KA relative to UGCAUGU
B2	0.117 KA relative to UGCAUGU
B3	0.0649 KA relative to UGCAUGU
B4	0.113 KA relative to UGCAUGU
B5	0.0798 KA relative to UGCAUGU
B6	0.0958 KA relative to UGCAUGU
B7	0.0442 KA relative to UGCAUGU
B8	0.101 KA relative to UGCAUGU
B9	0.524 KA relative to UGCAUGU
B10	0.15 KA relative to UGCAUGU
B11	0.0797 KA relative to UGCAUGU
B12	0.0975 KA relative to UGCAUGU
B13	0.0653 KA relative to UGCAUGU
B14	0.0638 KA relative to UGCAUGU
B15	0.0616 KA relative to UGCAUGU
B16	0.083 KA relative to UGCAUGU
B17	0.119 KA relative to UGCAUGU
B18	0.0587 KA relative to UGCAUGU
B19	0.102 KA relative to UGCAUGU
B20	1.27 KA relative to UGCAUGU
